PubChem BioAssay (NCATS)
Some of the results follow. Shown are side measurements of this screen, not its main read-out; they come without a call. For part of these data: Compounds called inactive in the main read-out are mostly missing here. Words in brackets tell the shape of the fitted curve; partial curves, single points and poor fits give uncertain potencies.

Legend:
[1] = qHTS drug screen for cell cycle checkpoint inhibitors in PARPi-resistant BRCA-mutant ovarian cancer cell lines. (AID 1963452); settings: PEO1/OlaR viability, CellTiter-Glo luminescence, 96 h
How it was run: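 PEO1, PEO4 and PEO1/OlaR ovarian cancer cells, 600 per well, exposed 96 h at 37C to a dilution series. Viability read by CellTiter-Glo luminescence, normalized to DMSO and empty wells; activity summarized as Z-AUC.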

[2] = qHTS for identification of novel therapeutic agents for treatment of microphthalmiaassociated transcription factor (MiT) renal cell carcinoma (RCC) (AID 1963991); settings: CellTiter-Glo, 48 h; for z-score: stronger effect = lower value
How it was run: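 Viability of three TFE3-fusion renal carcinoma lines measured by CellTiter-Glo after 48 h treatment with each of 1912 compounds at 11 concentrations. Responses scaled between DMSO (100%) and empty wells (0%) before curve fitting.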

[3] = measured here: PEO1 parental viability
[4] = TFE3-RCC UOK109 viability, measured here: UOK109 Z-AUC
[5] = TFE3-RCC viability, measured here: UOK124 Z-AUC
[6] = TFE3-RCC viability, measured here: UOK145 Z-AUC
[7] = TFE3-RCC viability, measured here: UOK145 cell viability
[8] = TFE3-RCC viability, measured here: UOK124 cell viability
Tags give direction and shape of the fitted curve.

Compound | AC50 [1, 3] | AC50 ([1]; measured here: PEO4 viability) | z-score [2, 4] | z-score [2, 5] | z-score [2, 6] | AC50 [2, 7] | AC50 [2, 8]
Cc1cc(C(C)(C)C)cc(C)c1CC1=NCCN1 | 24.5 µM [falling, single point] | 24.5 µM [falling, single point] | 0.193 | 0.744 | 2.25 | 20.9 µM [falling, single point] | 
O=C(Nc1cccc(Cl)c1)Nc1ncc(CCNc2ncnc3ccsc23)s1 | 12.3 µM [falling, partial curve] | 24.5 µM [falling, single point] | 0.82 | -0.809 | 0.46 | 14.8 µM [falling, partial curve] | 
O=C1C(Cl)=C(NCCN2CCOCC2)C(=O)c2ncccc21 | 4.36 µM [falling, full curve] | 3.09 µM [falling, full curve] | -0.642 | -1.11 | -0.71 | 6.62 µM [falling, full curve] | 3.72 µM [falling, full curve]
CN1CCN(c2ccc3nc(-c4c(N)c5c(F)cccc5[nH]c4=O)[nH]c3c2)CC1 | 6.92 µM [falling, partial curve] | 6.16 µM [falling, partial curve] | -0.717 | -0.714 | -0.267 | 18.7 µM [falling, partial curve] | 16.6 µM [falling, partial curve]
Cc1cnc(Nc2ccc(N3CCN(C)CC3)cc2)nc1Nc1cccc(S(=O)(=O)NC(C)(C)C)c1 | 4.36 µM [falling, full curve] | 4.9 µM [falling, partial curve] | -0.76 | -1.02 | -0.127 | 14.8 µM [falling, partial curve] | 5.9 µM [falling, full curve]
